For 31 molecules, binding signal results are on record in paper PMC9911399, “Two distinct binding modes provide the RNA-binding protein RbFox with extraordinary sequence specificity”.

Changes are numbered by the printed parent chain; changes in the protein carry UniProt numbers. The list shows a part of the results.

T1: RBFOX1 RRM (Homo sapiens, UniProt Q9NWB1 109-208)
T1 sequence: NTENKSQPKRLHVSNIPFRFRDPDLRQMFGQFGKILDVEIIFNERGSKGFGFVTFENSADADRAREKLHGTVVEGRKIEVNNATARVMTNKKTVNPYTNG

B1: GCGUGAU (DNA:RNA)
RNA: GGGAGACCGGAAUUCAGAUUGUCCGCGUGAUUUAAAUCCCGUCGUAGCCACCA
DNA 1: CAATCTGAATTCCGGTCTCCC
DNA 2: TGGTGGCTACGACGGGATT
B2: CAUGACC (DNA:RNA)
RNA: GGGAGACCGGAAUUCAGAUUGUCCCAUGACCUUAAAUCCCGUCGUAGCCACCA
DNA 1: CAATCTGAATTCCGGTCTCCC
DNA 2: TGGTGGCTACGACGGGATT
B3: GGCUUAC (DNA:RNA)
RNA: B1 RNA with C26G, G27C, G29U, U31C
DNA 1: CAATCTGAATTCCGGTCTCCC
DNA 2: TGGTGGCTACGACGGGATT
B4: ACCCGUU (DNA:RNA)
RNA: B1 RNA with G25A, G27C, U28C, A30U
DNA 1: CAATCTGAATTCCGGTCTCCC
DNA 2: TGGTGGCTACGACGGGATT
B5: GUAAUAC (DNA:RNA)
RNA: B1 RNA with C26U, G27A, U28A, G29U, U31C
DNA 1: CAATCTGAATTCCGGTCTCCC
DNA 2: TGGTGGCTACGACGGGATT
B6: AGUUCUA (DNA:RNA)
RNA: B2 RNA with C25A, A26G, G28U, A29C, C30U, C31A
DNA 1: CAATCTGAATTCCGGTCTCCC
DNA 2: TGGTGGCTACGACGGGATT
B7: CACCAGC (DNA:RNA)
RNA: B2 RNA with U27C, G28C, C30G
DNA 1: CAATCTGAATTCCGGTCTCCC
DNA 2: TGGTGGCTACGACGGGATT
B8: AGCGUAU (DNA:RNA)
RNA: B1 RNA with G25A, C26G, G27C, U28G, G29U
DNA 1: CAATCTGAATTCCGGTCTCCC
DNA 2: TGGTGGCTACGACGGGATT
B9: CUCACUG (DNA:RNA)
RNA: B2 RNA with A26U, U27C, G28A, A29C, C30U, C31G
DNA 1: CAATCTGAATTCCGGTCTCCC
DNA 2: TGGTGGCTACGACGGGATT
B10: ACUCGUG (DNA:RNA)
RNA: B1 RNA with G25A, G27U, U28C, A30U, U31G
DNA 1: CAATCTGAATTCCGGTCTCCC
DNA 2: TGGTGGCTACGACGGGATT
B11: ACACCCG (DNA:RNA)
RNA: B2 RNA with C25A, A26C, U27A, G28C, A29C, C31G
DNA 1: CAATCTGAATTCCGGTCTCCC
DNA 2: TGGTGGCTACGACGGGATT
B12: GUUUCAA (DNA:RNA)
RNA: B1 RNA with C26U, G27U, G29C, U31A
DNA 1: CAATCTGAATTCCGGTCTCCC
DNA 2: TGGTGGCTACGACGGGATT
B13: GAUAGGA (DNA:RNA)
RNA: B2 RNA with C25G, G28A, A29G, C30G, C31A
DNA 1: CAATCTGAATTCCGGTCTCCC
DNA 2: TGGTGGCTACGACGGGATT
B14: GCCGCAU (DNA:RNA)
RNA: B1 RNA with G27C, U28G, G29C
DNA 1: CAATCTGAATTCCGGTCTCCC
DNA 2: TGGTGGCTACGACGGGATT
B15: AGGAUCG (DNA:RNA)
RNA: B2 RNA with C25A, A26G, U27G, G28A, A29U, C31G
DNA 1: CAATCTGAATTCCGGTCTCCC
DNA 2: TGGTGGCTACGACGGGATT
B16: GUUUCCA (DNA:RNA)
RNA: B2 RNA with C25G, A26U, G28U, A29C, C31A
DNA 1: CAATCTGAATTCCGGTCTCCC
DNA 2: TGGTGGCTACGACGGGATT
B17: UUUCCGG (DNA:RNA)
RNA: B2 RNA with C25U, A26U, G28C, A29C, C30G, C31G
DNA 1: CAATCTGAATTCCGGTCTCCC
DNA 2: TGGTGGCTACGACGGGATT
B18: ACUUACG (DNA:RNA)
RNA: B2 RNA with C25A, A26C, G28U, C31G
DNA 1: CAATCTGAATTCCGGTCTCCC
DNA 2: TGGTGGCTACGACGGGATT
B19: UCCCAGU (DNA:RNA)
RNA: B1 RNA with G25U, G27C, U28C, G29A, A30G
DNA 1: CAATCTGAATTCCGGTCTCCC
DNA 2: TGGTGGCTACGACGGGATT
B20: UUCAAGU (DNA:RNA)
RNA: B2 RNA with C25U, A26U, U27C, G28A, C30G, C31U
DNA 1: CAATCTGAATTCCGGTCTCCC
DNA 2: TGGTGGCTACGACGGGATT
B21: CUCCUCC (DNA:RNA)
RNA: B2 RNA with A26U, U27C, G28C, A29U
DNA 1: CAATCTGAATTCCGGTCTCCC
DNA 2: TGGTGGCTACGACGGGATT
B22: UCCUAGC (DNA:RNA)
RNA: B2 RNA with C25U, A26C, U27C, G28U, C30G
DNA 1: CAATCTGAATTCCGGTCTCCC
DNA 2: TGGTGGCTACGACGGGATT
B23: CUACAAG (DNA:RNA)
RNA: B2 RNA with A26U, U27A, G28C, C30A, C31G
DNA 1: CAATCTGAATTCCGGTCTCCC
DNA 2: TGGTGGCTACGACGGGATT
B24: ACAGCUA (DNA:RNA)
RNA: B2 RNA with C25A, A26C, U27A, A29C, C30U, C31A
DNA 1: CAATCTGAATTCCGGTCTCCC
DNA 2: TGGTGGCTACGACGGGATT
B25: CCAAGAU (DNA:RNA)
RNA: B1 RNA with G25C, G27A, U28A
DNA 1: CAATCTGAATTCCGGTCTCCC
DNA 2: TGGTGGCTACGACGGGATT
B26: GGAAGUA (DNA:RNA)
RNA: B1 RNA with C26G, G27A, U28A, A30U, U31A
DNA 1: CAATCTGAATTCCGGTCTCCC
DNA 2: TGGTGGCTACGACGGGATT
B27: AAUUAAA (DNA:RNA)
RNA: B2 RNA with C25A, G28U, C30A, C31A
DNA 1: CAATCTGAATTCCGGTCTCCC
DNA 2: TGGTGGCTACGACGGGATT
B28: GUUGCGU (DNA:RNA)
RNA: B2 RNA with C25G, A26U, A29C, C30G, C31U
DNA 1: CAATCTGAATTCCGGTCTCCC
DNA 2: TGGTGGCTACGACGGGATT
B29: GACACCA (DNA:RNA)
RNA: B2 RNA with C25G, U27C, G28A, A29C, C31A
DNA 1: CAATCTGAATTCCGGTCTCCC
DNA 2: TGGTGGCTACGACGGGATT
B30: CUCCUCG (DNA:RNA)
RNA: B2 RNA with A26U, U27C, G28C, A29U, C31G
DNA 1: CAATCTGAATTCCGGTCTCCC
DNA 2: TGGTGGCTACGACGGGATT
B31: GAUAUGU (DNA:RNA)
RNA: B2 RNA with C25G, G28A, A29U, C30G, C31U
DNA 1: CAATCTGAATTCCGGTCTCCC
DNA 2: TGGTGGCTACGACGGGATT

For this test, the target named is T1, RBFOX1 RRM. Put plainly: EMSA; HiTS-Eq, 1 nM pool, 10 min; buffer printed only for the single-RNA assays: 10 mM Tris pH 7.5, 150 mM NaCl, 3.4 mM EDTA, 0.001% NP-40, 30 C. Particulars: tags: His6 N-terminal (pET28a); label: 5' 32P. In short, it runs like this:
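Purified wild-type or mutant RbFox RRM at increasing concentrations was equilibrated with 1 nM of 5′-radiolabelled RNA carrying 7 randomized nucleotides for 10 min in 50 µL. Unbound RNA was separated by 8% native PAGE and sequenced. Relative association constants came from read-count changes of each RNA species compared with the control reaction, normalised to the cognate motif.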
A general note: Mobility shift assays separate free from complexed probe on a gel.
B1: the binding signal is 0.0148 KA relative to UGCAUGU. As for B2, the figure is 0.00439 KA relative to UGCAUGU; as for B3, 0.0152 KA relative to UGCAUGU; as for B4, 0.00238 KA relative to UGCAUGU. As for B5, the figure is 0.00592 KA relative to UGCAUGU; as for B6, 0.00769 KA relative to UGCAUGU. On to B7, for which the binding signal was 0.00308 KA relative to UGCAUGU. With B8, the binding signal is 0.00639 KA relative to UGCAUGU. As to B9, the binding signal is 0.00809 KA relative to UGCAUGU. As for B10, the figure is 0.00949 KA relative to UGCAUGU. As for B11, the figure is 0.00133 KA relative to UGCAUGU; as for B12, 0.0119 KA relative to UGCAUGU; as for B13, 0.00363 KA relative to UGCAUGU. Take B14: the binding signal was 0.0199 KA relative to UGCAUGU. Regarding B15, the binding signal was 0.0255 KA relative to UGCAUGU. As for B16, the figure is 0.0128 KA relative to UGCAUGU. The value for B17 was 0.00356 KA relative to UGCAUGU; that for B18 was 0.00679 KA relative to UGCAUGU; that for B19 was 0.000725 KA relative to UGCAUGU.

For the molecule B20, the binding signal is 0.0099 KA relative to UGCAUGU. With B21, the binding signal is 0.00557 KA relative to UGCAUGU. As for B22, the figure is 0.0075 KA relative to UGCAUGU. As for B23, the figure is 0.0081 KA relative to UGCAUGU; as for B24, 0.001 KA relative to UGCAUGU; as for B25, 0.00318 KA relative to UGCAUGU. For B26, the binding signal was 0.00756 KA relative to UGCAUGU. As for B27, the figure is 0.00163 KA relative to UGCAUGU. As for B28, the figure is 0.0215 KA relative to UGCAUGU. As for B29, the figure is 0.000298 KA relative to UGCAUGU. Regarding B30, the binding signal is 0.00544 KA relative to UGCAUGU. The value for B31 was 0.0112 KA relative to UGCAUGU.
